In PubChem BioAssay AID1347073 (National Center for Advancing Translational Sciences (NCATS), 2019):
Out of some 45,000 compounds screened, about 200 (0.44%) were called active. Not shown: some 7% with an inconclusive outcome. Calls follow the shape of the dose curve; as a rule, active = well fitted activation curve with a large enough effect; inconclusive = small, poorly fitted or top-dose-only effect; inactive = no such curve, though single readings can be large or run the other way. This is one part of the list.

Assay: qHTS of TDP-43 Inhibitors: NCGC Sytravon Library Screen; also: 0% is about no effect; nearly all actives have a fitted effect of over 55% in size
Conditions: yeast TDP-43 toxicity rescue, BacTiter-Glo growth, 24 h; at 46.1 µM (top of the series)
Summary of the method: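 TDP-43-expressing yeast, pregrown in raffinose, seeded at OD600 0.02 in galactose medium with compound for 24 hr at 30 deg C. Growth read by BacTiter-Glo luminescence, so rescue of toxicity appears as activation.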
In the case of `O=C1/C(=C/c2ccncc2)N2CCC1CC2`, the growth rescue (activation) is reported as inactive: 1.5%. In the case of `Cc1ccc(CN2CCN(Cc3ccccc3F)CC2)cc1`, the growth rescue (activation) is reported as inactive: -1.12%. For `CCC(=O)Nc1cc(C(=O)N2CCC3(CC2)OCCO3)ccc1S(=O)(=O)c1ccc(C)cc1`, the growth rescue (activation) was inactive: -33.3%. For `O=c1[nH]c(=O)n(CCc2ccccc2)c(O)c1C=NC1CC1`, the growth rescue (activation) was inactive: 11.5%. With `CCOC(=O)c1cc(CC)sc1/N=C/C1C(=O)NC(=S)NC1=O` the growth rescue (activation) was inactive: 12.3%. For `Nc1ccccc1C(=O)OCC(=O)N1CCc2ccccc21`, the growth rescue (activation) was inactive: 31%. In the case of `CCCC(C)n1[nH]c(=O)c2c1NC(=O)CSC2c1ccccc1` (centres undefined), the growth rescue (activation) is reported as inactive: 13.2%. For `O=c1[nH]c(=O)n(Cc2ccc(F)cc2)c(O)c1C=Nc1ccc(Cl)cc1`, the growth rescue (activation) was inactive: -3.18%. With `CN1C(=O)C(=Cc2cn(CC(=O)N3CCCC3)c3ccccc23)C(=O)N(C)C1=O` the growth rescue (activation) was inactive: 5.95%. In the case of `CC(C)(C)C(=O)O[C@H]1CC[C@@]2(C)C(=CC(=O)C3C2CC[C@]2(C)C(=O)[C@H](O)CC32)C1` (some centres undefined), the growth rescue (activation) is reported as inactive: 23.1%. For `CCOc1ccc(N2C(=O)NC(=O)/C(=C\c3ccc(N4CCOCC4)cc3C)C2=O)cc1`, the growth rescue (activation) was inactive: -6.56%. With `CCC(C)n1c(O)c(C=Nc2cccc(C(F)(F)F)c2)c(=O)[nH]c1=S` (centres undefined) the growth rescue (activation) was inactive: 12.7%. For `COc1ccc(-[n+]2c(-c3ccccc3)cc(-c3ccc(C)cc3)cc2-c2ccccc2)cc1`, the growth rescue (activation) was inactive: -5.24%. For `Cc1ccccc1-n1c(C)nc2ccccc2c1=O`, the growth rescue (activation) was inactive: 5.29%. With `N#CC1=C(N)Oc2c(c(=O)oc3ccccc23)C1c1ccc(OC(=O)N2CCOCC2)cc1` (centres undefined) the growth rescue (activation) was inactive: 28.2%. In the case of `CC(C)(C)C(=O)O[C@H]1CC[C@@]2(C)C(=CC(=O)C3C2CC[C@]2(C)C(=O)CCC32)C1` (some centres undefined), the growth rescue (activation) is reported as inactive: 8.04%. With `C[C@]12CCC3C(CC[C@H]4C[C@H](O)CC[C@]34C)C1[C@@H](O)[C@@H](O)[C@@H]2O` (some centres undefined) the growth rescue (activation) was inactive: -0.474%. For `CCCCCCn1c(O)c(C=NC2CCN(Cc3ccccc3)CC2)c(=O)[nH]c1=O`, the growth rescue (activation) was inactive: 2.6%. In the case of `NCCCN1CCN(c2ccccc2)CC1`, the growth rescue (activation) is reported as inactive: 24.1%. For `Cc1nn(Cc2ccccc2Cl)c(C)c1C(=O)OCC(=O)N1CC(C)OC(C)C1` (centres undefined), the growth rescue (activation) was inactive: 8.19%. In the case of `Cc1ccsc1C(=O)C1CCCN(Cc2c(C)nn(C(C)C)c2C)C1` (centres undefined), the growth rescue (activation) is reported as inactive: 3.88%. With `CCOC(=O)C1=Nc2ccccc2/C1=C\c1c(O)n(C)c(=O)n(C)c1=O` the growth rescue (activation) was inactive: -26.5%. With `O=C(CN1CCCC1=O)NCCc1ccccc1` the growth rescue (activation) was inactive: -13.6%. For `O=CNc1ccc(OP(=O)(Oc2ccccc2)Oc2ccccc2)cc1`, the growth rescue (activation) was inactive: -2.25%. With `O=C(NCC(c1cccnc1)N1CCN(c2ccccc2F)CC1)Oc1ccccc1` (centres undefined) the growth rescue (activation) was inactive: 9.43%. For `COc1ccc2[nH]cc(CCN=C(N)N)c2c1`, the growth rescue (activation) was inactive: 4.45%. With `CC1CN(O)C2CCc3nonc3C12O` (centres undefined) the growth rescue (activation) was inactive: 1.68%. In the case of `CCN1CCN(c2ccc([N+](=O)[O-])cc2C(=O)OC)CC1`, the growth rescue (activation) is reported as inactive: -14.7%. In the case of `COc1ccc(CN2C(=O)NC(=O)/C(=C\c3ccco3)C2=O)cc1`, the growth rescue (activation) is reported as inactive: -15.4%. With `c1cncc(CNCCc2c[nH]c3ccccc23)c1` the growth rescue (activation) was inactive: 10.2%. For `CC1=CC(=O)C2=C(C)CC(O)C3C(C)C(=O)OC3C12` (centres undefined), the growth rescue (activation) was inactive: -22%. In the case of `O=c1[nH]c(=O)n(CCC2=CCCCC2)c(O)c1C=NCCCn1ccnc1`, the growth rescue (activation) is reported as inactive: -8.75%. For `O=c1[nH]c(=S)n(-c2ccc(Cl)cc2)c(O)c1/C=N/N1CCOCC1`, the growth rescue (activation) was inactive: -6.83%. In the case of `C[C@]12CCC(=O)C=C1C=CC1C2CC[C@@]2(C)C1CC[C@@H]2O` (some centres undefined), the growth rescue (activation) is reported as inactive: 16.9%.
